# Test results as given in ChEMBL document CHEMBL4888484, “Replenishing the malaria drug discovery pipeline: Screening and hit evaluation of the MMV Hit Generation Library 1 (HGL1) against asexual blood stage Plasmodium falciparum ,using a nano luciferase reporter read-out” (2022).
# Screen size: about 150,000 compounds; about 540 (0.36%) showed an effect of 50% or more. The list shows a part of the results.
# Test system: Plasmodium falciparum
# Test: Primary screen in NF54 nanoGlo assay, in single point, at 2uM, 72h; a lower Z score goes with more inhibition
# Format: functional, Erythrocyte
# Conditions: timepoint 72 hour
Structure (SMILES),% Inhibition,Z score
O=C(CCc1ccc(=O)[nH]c1)NC1(c2ccc(Cl)cc2)CCCC1,-7%,0.66
C=CCCC(=O)N1CCCC[C@H](c2ccc(Cl)cc2)C1,29%,-3.69
COc1ccc(CN2CC[C@H](NS(=O)(=O)N(C)C)[C@@H](O)C2)cc1Cl,-4%,0.42
CCC1(CC)C(NC(=O)C2CCCN2C(=O)c2ccccc2O)CC1OC (stereo not given),-1%,0.13
Cc1nc2cc(OCc3cc(C(=O)N4C[C@H]5CC[C@H]4C5)no3)ccc2s1,-4%,0.67
CCc1onc(C)c1NC(=O)NCC1CCc2ccccc2CC1,-5%,0.83
Cc1cccc(C(=O)N2CCOC[C@@H]2CC(C)C)n1,-8%,1.03
COC[C@H]1CCN1C(=O)Nc1csc(C)c1,-10%,0.97
CCN(Cc1cccn1-c1cccnc1)C[C@H]1CCCN(CCc2cccc(F)c2)C1,-11%,1.34
CCN1C[C@H](NC(=O)c2ccc(C)nc2C)[C@@H](OC)C1,-8%,1.54
O=C1C2C3C=CC([C@@H]2C(=O)N1Cc1cccnc1)C31CC1 (stereo not given in full),-13%,1.61
Cc1cnccc1NC(=O)CNC[C@H]1CCCO1,-4%,0.56
Cc1cc([C@H](NCc2nnnn2C)c2ccccc2Cl)ccc1F,-2%,0.29
N[C@@H](c1ccc2c(c1)CCO2)c1cc(Cl)ccc1Cl,0%,-0.02
CC1(C)C2CC=C(COCC(O)CNCc3ccccc3)C1C2 (stereo not given),0%,0.01
Cc1nc2c(C)cccc2cc1C(=O)N[C@H]1CCOC[C@@H]1OCCO,-15%,1.42
CCC1(CC)CNC(=O)[C@H]1NC(=O)Cc1cn2cc(F)ccc2n1,4%,-0.66
CCn1c(CNS(=O)(=O)c2ccccc2C)nc2cccnc21,1%,-0.21
Cc1ccc(CNCc2nc3c(s2)CCCC3)s1,2%,-0.24
Cc1oc(C)c(C(=O)N2CCC[C@H](n3cccn3)C2)c1C,3%,-0.45
N#Cc1cccc(-c2nnc(N3CCC4(CCCCC4)CC3)n2[C@H]2CCOC2)c1,-5%,0.89
CC1CC(CN2CCCC(c3ccncc3)CC2)CCO1 (stereo not given),2%,-0.24

Structure (SMILES),% Inhibition,Z score
NC(=O)Cc1nc(C[C@H]2CCCOC2)n(C2Cc3ccccc3C2)n1,-3%,0.59
Nc1c2c(-c3cccc(Cl)c3)nc(NCc3ccccn3)nc2nn1-c1ccccc1Cl,0%,0.06
Cc1c(CNC(=O)N2CCCN(C)C(=O)C2)oc2ccc(F)cc12,-11%,1.12
Cc1ccc(C)c(S(=O)(=O)NCc2ccc3c(c2)CCN3C(=O)C(C)C)c1,-1%,0.15
CCOC1CC(NC2CCCn3nc(C(C)C)nc32)C1(C)C (stereo not given),-8%,1.28
CN(Cc1cscn1)C(=O)c1cccc(-c2noc(C3CC3)n2)c1,-6%,0.85
O=C(NCc1ccc2c(c1)OCO2)c1csc(CN(CCC(c2ccccc2)c2ccccc2)Cc2ccc3c(c2)OCO3)n1,-3%,0.56
Cc1ccc(Cl)cc1NC(=O)CC(=O)N1CC[C@@H]1C,-5%,1.01
CN(Cc1cccc(N(C)C)c1)C(=O)c1ccncc1Br,-6%,0.69
Cc1cc(S(=O)(=O)[C@H]2CS(=O)(=O)C[C@@H]2NCC(C)C)ccc1F,2%,-0.21
CCc1nc(N(C)Cc2ccccc2)c2onc(-c3ccc(C)cc3)c2n1,-8%,1.07
NC(=O)C1CCN(C(=O)c2cc(=O)c(OCc3ccc(Cl)cc3)c[nH]2)CC1,-2%,0.34
Cc1ccsc1CN(Cc1ccc(F)cc1)C(=O)CN(CC(C)C)C(=O)Cc1cccs1,-1%,0.1
Cc1cc2nc(N3CCOCC3)n(CC(=O)Nc3cc(F)cc(F)c3)c(=O)c2n1C,-18%,1.91
CC(C)(C)OC(=O)Nc1ccc(N)cn1,-2%,0.23
Cc1ccc(F)cc1C(=O)N[C@H]1CCCS(=O)(=O)C1,-9%,1.42
CCOC(=O)C(C)(C)N(C)C(=O)[C@@H]1CCCO1,-5%,0.66
Cc1ccc(F)c(OCc2nc([C@@H](N)CC(C)C)no2)c1,-12%,2.08
c1cc2cn[nH]c2cc1CN1CC[C@H](N2CCOCC2)C1,4%,-0.43
CCN1CCc2cc(OC)c(OC)cc2C1C(NC(=O)c1ccccc1Cl)C(C)C (stereo not given),-2%,0.25
CC1(C)CCCC(C(=O)N2C[C@@H](CO)[C@H](c3ccsc3)C2)C1 (stereo not given in full),-6%,1.21
COc1ccc2c(c1)C(N1CCN(C(=O)c3ccccc3Cl)CC1)=Nc1cc(C(F)(F)F)ccc1O2,-4%,0.47

Structure (SMILES),% Inhibition,Z score
CCCC(=O)N1CCC(n2cnc3ccccc32)CC1,-20%,2.27
CC(C)c1ccc(-n2nc3nc(N4CCCC4)nc(-c4ccccc4)c3c2N)cc1,-11%,1.43
C[C@H]1CCc2sc(C(=O)N(C)Cc3nnc4n3CCC4)cc2C1,-6%,0.81
CC(C)(C)[C@H]1OCC[C@@H]1c1noc(-c2ccnc(-c3ccco3)c2)n1,-5%,0.58
O=c1[nH]c(C2CC2)ncc1-c1ncnn1CC(F)(F)F,-2%,0.32
CN1CCN(C[C@@H](O)Cn2c3c(c4cccc(Cl)c42)CCCC3)CC1,33%,-3.78
O=C(Nc1ncccc1O)[C@@H]1CC=CCC1,-7%,1.19
Cc1noc2ncc(NC(=O)c3cnc(-c4ccsc4)s3)cc12,-6%,0.73
Cn1c(=O)cnn(-c2cc3c(cc2F)OCC(=O)N3CC2CC2)c1=O,-9%,1.24
Cc1nc(C)c(-c2csc(COCc3ccccc3)n2)o1,-14%,1.41
O=S(=O)(c1ccc(F)c(F)c1)N1Cc2cncnc2C1,-19%,3.31
Nc1ncncc1C(=O)NCc1cccc(CN2CCCCCC2)c1,-7%,0.84
CC1(C)[C@H](Cc2cc(CN3CCN(c4ccccc4)CC3)on2)C[C@@H]1NC1CCC1,17%,-1.99
CCn1nccc1-c1nc(N2CCOCC2)n(C)n1,-7%,0.93
CCCOc1ccc([C@H]2C(=O)N(C3CCCCC3)CC(=O)N2CCCOCC)cc1OC,15%,-1.47
O=C(NCCOCCc1ccccc1)C(=O)Nc1c(F)cccc1F,-10%,1.89
COc1ccccc1N1CCN(C(=O)C(F)(F)C(F)(F)C(=O)N2CCN(c3ccccc3OC)CC2)CC1,-10%,1.55
Cc1cc2nc3n(c(=O)c2n1CC(=O)NCCc1ccc(Cl)cc1)CCCC3,-11%,1.22
CCn1nc(-c2cccc([C@H](C)N(C)C)c2)nc1N(C)C,-7%,0.93
OC1=Nc2c(ncn2-c2ccc(OC(F)(F)F)cc2)[C@@H](c2cccnc2)C1,28%,-3.18
CN(C)C(=O)c1cncc(Br)c1,-4%,0.38
CC(=O)N[C@H]1CCN(C(=O)N[C@H](C)C(c2ccccc2)c2ccccc2)C1,-8%,0.75

Structure (SMILES),% Inhibition,Z score
O=C(Cc1cccs1)N1CC[C@@H](c2ccccc2)S(=O)(=O)CC1,4%,-0.65
CC(C)(C)OC(=O)NCc1ccccc1O,33%,-4.2
CC(C)Oc1cccc(N(C)Cc2ccsc2)n1,-9%,0.99
C#CCCC1(CCC(=O)N2CCC(C(=O)O)C3CCCCC32)N=N1 (stereo not given),-5%,0.74
COc1ccc(F)c(CNC2(c3nccs3)CCCC2)c1,5%,-0.62
Cn1c(=O)n([C@@H]2CCN(C(=O)COc3ccccc3)C2)c2ncccc21,-13%,1.72
CC(C)N1CCNC(=O)[C@@H]1CC(=O)N1CCCCCCCC1,-6%,0.91
NC(=O)C1CCN(C(=O)c2cc3c(s2)CCCCCC3)CC1,-3%,0.43
C#CCNC(=O)[C@H](C)N1CCN(C(C)C)CC1,-9%,0.88
O=C(N[C@H]1CCN(Cc2cscn2)C[C@@H]1O)c1ccc(-c2ccco2)cc1,-17%,3.24
O=C1CCCN1Cc1ncnn1Cc1ccc2c(c1)OCO2,-4%,0.57
O=C(CN1C=CCC=C1c1nc(-c2ccc(Br)cc2)cs1)c1ccccc1,65%,-4.25
Cc1ccc(CNC(=O)c2c(-c3ccncc3)noc2C)o1,1%,-0.25
CCOC(=O)[C@@H](NS(=O)(=O)CC1CCCCO1)C(C)(C)C (stereo not given in full),-4%,0.5
O=c1c2ccoc2ccn1Cc1ccc(OC(F)F)cc1,-8%,0.89
O=C(Cc1n[nH]c(-c2cccnc2)n1)NCCc1ccccc1,8%,-0.94
CCc1ccc(-c2cc3n(n2)C[C@@](C)(C(=O)NC2CCCCC2)N(CCN(CC)CC)C3=O)cc1,9%,-1.36
CCO[C@@H](C)c1nc(Cn2ncccc2=O)cs1,-1%,0.11
O=C(Cc1ccccc1Cl)Nc1cc(-n2ccnc2)ncn1,-7%,1.18
